# Measured values as given in the supplement of paper PMC7125110.
# ± gives the standard error. This sample is rich in variants without activity.
# B1: glmS ribozyme (parent)
# chain: AUAAAAGCGCCAGAACUACAGAAAUGUAGUUGACGAGGAGGAGGUUUAUCGAAUUUUCGGCGGAUGCCUCCAAA
# Legend:
# Details in all cases: with glucosamine-6-phosphate
# glucosamine-6-phosphate [1] = variants of: B1; test: self-cleavage kobs at 40 uM GlcN6P; higher = faster cleavage; RNA array
# Procedure, shortened: (§1)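 Tracking of barcoded ribozyme variants used a hybridised Cy3 probe at 37 °C, after in situ transcription by E. coli RNA polymerase on sequenced MiSeq chips. The flowed solution held 40 μM to 10 mM glucosamine-6-phosphate in HEPES/KCl/Mg(OAc)2 buffer, and imaging ran over ~14 h. kobs was taken from exponential decay fits of normalised per-tile medians, and kcat and KM from weighted Michaelis–Menten fits.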
# glucosamine-6-phosphate [2] = variants of: B1; test: self-cleavage kobs at 640 uM GlcN6P; higher = faster cleavage; RNA array
# Procedure, shortened: as §1
# glucosamine-6-phosphate [3] = variants of: B1; test: self-cleavage kobs at 160 uM GlcN6P; higher = faster cleavage; RNA array
# Procedure, shortened: as §1
# glucosamine-6-phosphate [4] = variants of: B1; test: self-cleavage kobs at 10000 uM GlcN6P; higher = faster cleavage; RNA array
# Procedure, shortened: as §1
# glucosamine-6-phosphate [5] = variants of: B1; test: self-cleavage kobs at 2500 uM GlcN6P; higher = faster cleavage; RNA array
# Procedure, shortened: as §1
Variant,self-cleavage kobs at 40 uM GlcN6P (glucosamine-6-phosphate [1]),self-cleavage kobs at 640 uM GlcN6P (glucosamine-6-phosphate [2]),self-cleavage kobs at 160 uM GlcN6P (glucosamine-6-phosphate [3]),self-cleavage kobs at 10000 uM GlcN6P (glucosamine-6-phosphate [4]),self-cleavage kobs at 2500 uM GlcN6P (glucosamine-6-phosphate [5])
A12C U49G A52U,< 1e-05 s⁻¹,,,,
A15C G32U G60U,< 1e-05 s⁻¹,,,,
C11G,< 1e-05 s⁻¹,,,,
C10U G60U C67U,< 1e-05 s⁻¹,< 1e-05 s⁻¹,< 1e-05 s⁻¹,< 1e-05 s⁻¹,
A12U C16A U45G C71G,< 1e-05 s⁻¹,,,,
C10U G13C A39C A42U,< 1e-05 s⁻¹,< 1e-05 s⁻¹,< 1e-05 s⁻¹,,< 1e-05 s⁻¹
A14G G35A A42G C61U,< 1e-05 s⁻¹,< 1e-05 s⁻¹,< 1e-05 s⁻¹,,< 1e-05 s⁻¹
A12G A39U G41U A42U A52U C70U,< 1e-05 s⁻¹,,,,
A12G C16A U49A U54A C61U,< 1e-05 s⁻¹,< 1e-05 s⁻¹,,,
G13U U30A A53G,< 1e-05 s⁻¹,,< 1e-05 s⁻¹,,
G13C G66A,< 1e-05 s⁻¹,,,,
A12G U56C,< 1e-05 s⁻¹,,,,
A12G G29A,< 1e-05 s⁻¹,,,,
G13C A15C G40C G41U A52U,< 1e-05 s⁻¹,,,,
C11A U55A U56C,< 1e-05 s⁻¹,,,,
G13U G29A G44U U55G,< 1e-05 s⁻¹,,,< 1e-05 s⁻¹,
A12G G35U C71A,< 1e-05 s⁻¹,,,,
C11U A48U,< 1e-05 s⁻¹,< 1e-05 s⁻¹,< 1e-05 s⁻¹,,
A12U G40C A52U U56C C68A,< 1e-05 s⁻¹,,,< 1e-05 s⁻¹,
C11A U49C C50U,< 1e-05 s⁻¹,,,,
G13C U46A,< 1e-05 s⁻¹,< 1e-05 s⁻¹,< 1e-05 s⁻¹,,

Variant,self-cleavage kobs at 40 uM GlcN6P (glucosamine-6-phosphate [1]),self-cleavage kobs at 640 uM GlcN6P (glucosamine-6-phosphate [2]),self-cleavage kobs at 160 uM GlcN6P (glucosamine-6-phosphate [3]),self-cleavage kobs at 10000 uM GlcN6P (glucosamine-6-phosphate [4]),self-cleavage kobs at 2500 uM GlcN6P (glucosamine-6-phosphate [5])
A12C A64U,< 1e-05 s⁻¹,,< 1e-05 s⁻¹,,
A14C C16A G35A U45C A48G A52U,< 1e-05 s⁻¹,< 1e-05 s⁻¹,,,< 1e-05 s⁻¹
C10U A15C C68A,< 1e-05 s⁻¹,,,< 1e-05 s⁻¹,
A12U A36U C50A U69G,9.31e-05 ± 2.3e-05 s⁻¹,,,,
C11G G62C,< 1e-05 s⁻¹,,< 1e-05 s⁻¹,< 1e-05 s⁻¹,
A14C A33G G62C,< 1e-05 s⁻¹,,,< 1e-05 s⁻¹,
A12U G63U,< 1e-05 s⁻¹,< 1e-05 s⁻¹,,,< 1e-05 s⁻¹
C10U C11U G44A U45A U65G,< 1e-05 s⁻¹,,,,
A15C A48G G59U A64C,< 1e-05 s⁻¹,,,,
A12U C50G,4.38e-05 ± 1.4e-05 s⁻¹,,0.000613 ± 0.00026 s⁻¹,0.000147 ± 4.2e-05 s⁻¹,6.46e-05 ± 2.2e-05 s⁻¹
C11A A33G,< 1e-05 s⁻¹,,,,
A12U G44C U65A,< 1e-05 s⁻¹,,,,
C10U G38A,< 1e-05 s⁻¹,< 1e-05 s⁻¹,,,
A14U G29U A36G G40A U46G,< 1e-05 s⁻¹,,,,
A14G G63A,< 1e-05 s⁻¹,,,,< 1e-05 s⁻¹
C10U U65A,< 1e-05 s⁻¹,< 1e-05 s⁻¹,< 1e-05 s⁻¹,< 1e-05 s⁻¹,< 1e-05 s⁻¹
G13A C16U A64U,< 1e-05 s⁻¹,< 1e-05 s⁻¹,,,
C10U U45A,< 1e-05 s⁻¹,,,,
G13U G63U C71G,< 1e-05 s⁻¹,,,,
C11A G32A A39U,< 1e-05 s⁻¹,< 1e-05 s⁻¹,,,
C11U G37C G38U,< 1e-05 s⁻¹,,,,

Variant,self-cleavage kobs at 40 uM GlcN6P (glucosamine-6-phosphate [1]),self-cleavage kobs at 640 uM GlcN6P (glucosamine-6-phosphate [2]),self-cleavage kobs at 160 uM GlcN6P (glucosamine-6-phosphate [3]),self-cleavage kobs at 10000 uM GlcN6P (glucosamine-6-phosphate [4]),self-cleavage kobs at 2500 uM GlcN6P (glucosamine-6-phosphate [5])
A12C U31A G32C C34A U47A C71U,< 1e-05 s⁻¹,,,< 1e-05 s⁻¹,
G13C U49G G60U C70G,< 1e-05 s⁻¹,,,,
G13U G29C G43C,< 1e-05 s⁻¹,< 1e-05 s⁻¹,,,
A12C C71G,4.39e-05 ± 8.5e-06 s⁻¹,,,,
C10U C50A U69C,< 1e-05 s⁻¹,,,,
A14G G35C,< 1e-05 s⁻¹,< 1e-05 s⁻¹,< 1e-05 s⁻¹,,< 1e-05 s⁻¹
A12G C68G,< 1e-05 s⁻¹,,,,
C11G A15U G26U,< 1e-05 s⁻¹,,,< 1e-05 s⁻¹,
G13A U57C,< 1e-05 s⁻¹,,,,
G13U G29U A52G C67G,6.42e-05 ± 1.9e-05 s⁻¹,,,8.86e-05 ± 1.8e-05 s⁻¹,
G13A G29A G44U C68U,< 1e-05 s⁻¹,< 1e-05 s⁻¹,,,
A14C G41U A64U,< 1e-05 s⁻¹,< 1e-05 s⁻¹,,< 1e-05 s⁻¹,
A12U A53C,0.000569 ± 7.4e-05 s⁻¹,,,,
C11U G62A,< 1e-05 s⁻¹,< 1e-05 s⁻¹,< 1e-05 s⁻¹,< 1e-05 s⁻¹,
G13A G35U A36C,< 1e-05 s⁻¹,,,,
A14G G29C G40A C58U,< 1e-05 s⁻¹,< 1e-05 s⁻¹,,,
C11G G62C A64G C68G,< 1e-05 s⁻¹,,,< 1e-05 s⁻¹,
C11U G32C C34U,< 1e-05 s⁻¹,< 1e-05 s⁻¹,< 1e-05 s⁻¹,< 1e-05 s⁻¹,< 1e-05 s⁻¹
C11G A12C A64U,< 1e-05 s⁻¹,,,< 1e-05 s⁻¹,< 1e-05 s⁻¹
